# Assay results: paper PMC4336329 (PLoS ONE, 2015)
# In all, about 310,000 compounds went through this assay and about 2,200 (0.71%) showed an effect of 50% or more. The effect is printed as a negative number. Some of the results follow.
# Molecular target: human ether-à-go-go-related gene (hERG) potassium channel (human, UniProt Q12809)
# Experiment: primary screen, population patch clamp on CHO cells stably expressing hERG
# Chain of human ether-à-go-go-related gene (hERG) potassium channel (Q12809 whole entry, looked up): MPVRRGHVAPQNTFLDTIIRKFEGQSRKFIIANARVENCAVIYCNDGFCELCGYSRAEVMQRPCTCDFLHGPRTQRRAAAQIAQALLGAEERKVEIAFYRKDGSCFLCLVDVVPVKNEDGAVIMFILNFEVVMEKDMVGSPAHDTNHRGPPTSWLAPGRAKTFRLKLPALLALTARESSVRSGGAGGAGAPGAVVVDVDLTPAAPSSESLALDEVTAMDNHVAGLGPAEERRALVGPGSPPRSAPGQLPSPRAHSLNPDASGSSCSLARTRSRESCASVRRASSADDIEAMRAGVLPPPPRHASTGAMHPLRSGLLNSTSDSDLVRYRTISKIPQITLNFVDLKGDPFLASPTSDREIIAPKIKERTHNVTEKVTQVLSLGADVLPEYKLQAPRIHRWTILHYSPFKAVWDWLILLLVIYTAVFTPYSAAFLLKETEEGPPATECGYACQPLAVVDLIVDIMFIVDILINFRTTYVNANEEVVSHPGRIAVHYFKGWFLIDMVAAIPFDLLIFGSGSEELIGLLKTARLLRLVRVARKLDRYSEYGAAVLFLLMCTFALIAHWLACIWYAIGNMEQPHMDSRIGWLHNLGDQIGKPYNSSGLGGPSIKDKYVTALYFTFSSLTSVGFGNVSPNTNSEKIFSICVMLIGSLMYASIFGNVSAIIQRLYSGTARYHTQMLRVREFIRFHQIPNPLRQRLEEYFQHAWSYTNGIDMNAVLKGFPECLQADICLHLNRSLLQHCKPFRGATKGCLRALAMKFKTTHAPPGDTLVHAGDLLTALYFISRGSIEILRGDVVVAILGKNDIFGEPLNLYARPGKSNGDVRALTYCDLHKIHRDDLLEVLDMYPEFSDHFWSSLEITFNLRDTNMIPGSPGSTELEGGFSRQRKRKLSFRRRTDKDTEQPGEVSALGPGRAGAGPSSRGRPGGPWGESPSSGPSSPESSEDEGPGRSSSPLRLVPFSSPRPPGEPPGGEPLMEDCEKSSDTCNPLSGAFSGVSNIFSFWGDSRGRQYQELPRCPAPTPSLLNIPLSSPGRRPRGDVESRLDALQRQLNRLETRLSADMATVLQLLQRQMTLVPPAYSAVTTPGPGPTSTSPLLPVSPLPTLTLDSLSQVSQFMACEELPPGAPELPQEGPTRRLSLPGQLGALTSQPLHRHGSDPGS
row,Compound,"hERG current change (%, negative = inhibition) at 1uM"
1,Cc1ccc(C(=O)COC(=O)c2ccc3c(c2)C(=O)N(c2cccc4ncccc24)C3=O)cc1C,4.09%
2,Cc1c(Cl)cccc1NC(=O)CSc1nnc(CCNC(=O)OC(C)(C)C)o1,-12.4%
3,Cc1cc(C)nc(/N=C(\N)Nc2ccc(S(=O)(=O)Nc3nccc(C)n3)cc2)n1,19.9%
4,N#CC1=C2N=C(N)c3ccccc3N2C2=C(C(=O)CCC2)C1c1ccc(F)cc1 (stereo not shown),0.0442%
5,Cc1ccc(C2C3=C(CC(C)(C)CC3=O)NC3=C2C(=O)c2ccccc23)cc1 (stereo not shown),14.6%
6,CC(C)(C)NC(=O)C(c1ccco1)N(C(=O)c1csnn1)c1ccccc1 (stereo not shown),9.09%
7,C[C@@H]1C(=O)O[C@H]2[C@H]1CC[C@@]1(C)C(=O)C=C[C@@](C)(O)[C@H]21,15.4%
8,Cc1cc(C)n(-c2nc(NC(C)C)nc(NC(C)C)n2)n1,4.83%
9,CC(CNC(=O)CCS(=O)(=O)c1ccc2c(c1)oc(=O)n2C)c1ccccc1 (stereo not shown),12.8%
10,CCOc1cc(/C=C2\C(=N)N3N=CSC3=NC2=O)ccc1OS(=O)(=O)c1ccccc1,7.28%
11,Cc1ccc(C(=O)OC(C)CN2C(C)CCCC2C)cc1.Cl (stereo not shown),-9.8%
12,C=CCNc1nc(Cl)nc(Nc2ccc(OC)cc2)n1,5.46%
13,O=C(O)c1ccccc1-c1ccccc1C(=O)NNc1ccc([N+](=O)[O-])cc1,1.86%
14,COCCNC(=O)CN1C(=O)COc2ccc(Cl)cc21,14.7%
15,Cc1ccc(C2(C)NC(=O)N(CC(=O)c3ccc4c(c3)OCCO4)C2=O)cc1 (stereo not shown),1.5%
16,Cc1cccnc1NC(N)=S,8.16%
17,Cc1ccc(C)c(S(=O)(=O)N2CCN(C(=O)Cn3[nH]c(=O)c4ccccc4c3=O)CC2)c1,14.4%
18,Cc1c(CN(C)C)c2c(n1Cc1ccccc1)C(=O)c1ccccc1-2.Cl,-79%
19,CCCCCn1c(=O)[nH]c2cc(C(=O)NCCN3CCOCC3)ccc2c1=O,6.68%
20,c1cnc2c(c1)ccc1ncccc12,11.5%
21,COc1cccc2sc3ccc(NCCC4CCCN4C)cc3c(=O)c12 (stereo not shown),12.3%
22,COc1ccccc1NC1=CC(=O)CC(c2ccccc2)C1 (stereo not shown),5.44%

row,Compound,"hERG current change (%, negative = inhibition) at 1uM"
1,O=C1CC(O)(c2ccccc2)C(c2ccccc2)=C1c1ccccc1 (stereo not shown),10.8%
2,O=C(c1ccc2nc[nH]c2c1)N1CCN(S(=O)(=O)c2cccc(F)c2)CC1,15.3%
3,Cc1cnnc2c1-c1nonc1CC2,9.57%
4,O=C(CSc1nc(-c2cccs2)cc(C(F)(F)F)n1)NCc1ccco1,6.53%
5,Cc1ccccc1NC(=O)c1ccc2c(c1)CCN2S(C)(=O)=O,10.7%
6,COc1ccc(S(=O)(=O)N(C)CC(=O)Nc2ccc(C)cc2)cc1OC,-6.41%
7,Cn1cnc([N+](=O)[O-])c1C(=O)Nc1cccc([N+](=O)[O-])c1,2.07%
8,CC(C)/C=C1\CC/C(=C\c2cccnc2)C1=O,7.95%
9,CCn1c(SCC(=O)Nc2cc(C)on2)nc2sc3c(c2c1=O)CCCC3,13.1%
10,O=C(Nc1ccc(S(=O)(=O)NCc2cccnc2)cc1)c1ccco1,8.59%
11,O=C(CN1CCC(n2nnc3cc(F)ccc32)CC1)Nc1ccc2c(c1)CCC2,1.69%
12,COc1ccc(/C=N/NC(=S)Nc2ccccc2[N+](=O)[O-])cc1O,8.11%
13,CSc1nc(C)cc(Oc2ccc(=O)[nH]n2)n1,9.58%
14,O=C(c1ccccc1)c1cc2cc(Cl)ccc2[nH]1,5.63%
15,CN(C)C(=O)c1ccccc1Sc1cc(Cl)ccc1Cl,4.4%
16,O=C(NCCSc1c(-c2ccccc2)[nH]c2ccccc12)c1cc2ccccc2oc1=O,3.97%
17,COc1ccc(N2CCN(CC(=O)Nc3cc(C)on3)CC2)cc1.O=C(O)C(=O)O,11%
18,Cc1noc(C)c1COc1ccc(C(=O)OCC(=O)Nc2cccc(S(=O)(=O)N3CCOCC3)c2)cc1,10.1%
19,O=C(NCCc1ccc(Cl)cc1)c1cc(-c2ccccn2)nc2ccccc12,17.2%
20,N#CC1(Nc2ccccc2)C(=O)Nc2ccccc21 (stereo not shown),0.667%
21,O=C(NCc1ccccc1)OCCN1CCN(Cc2ccccc2)CCC1=O,3.59%
22,COC(=O)c1ccc(NC(=S)NCCCN2CCCC2=O)cc1,10.9%

row,Compound,"hERG current change (%, negative = inhibition) at 1uM"
1,CCOC(=O)C1=C(c2ccccc2)Nc2ncnn2C1c1ccc(O)cc1 (stereo not shown),3.62%
2,Fc1cccc(-n2c(-c3ccco3)nc3nc4ccccc4nc32)c1,11.6%
3,O=C(COC(=O)c1ccccc1F)c1ccc(-n2nncc2-c2ccco2)cc1,9.03%
4,Cc1cccc(NC(=O)CSc2nnc(C3CC3)n2CC2CCCO2)c1C (stereo not shown),16%
5,COc1ccc(S(=O)(=O)NCCN2CCOCC2)cc1Br,21%
6,CCOC(=O)N1CCC(Nc2c(-c3ccc(C)cc3)c(=O)c2=O)CC1,1.74%
7,S=C1NCN(C2CCCCC2)CN1CCc1ccccc1,12.5%
8,COc1ccc(Cn2ccc(=O)c(Cc3c(Cl)cccc3Cl)c2C)cc1,8.07%
9,O=C(c1ccc(F)cc1)N1CCCCC(S(=O)(=O)c2ccccc2)C1=O (stereo not shown),19.3%
10,CC(=C/c1ccccc1)/C=N/NC(=O)c1ccc2nc[nH]c2c1,6.11%
11,O=C(NNC(=O)c1c(O)c2ccccc2[nH]c1=O)c1ccccc1,16.8%
12,O=C(Nc1nnc(C2CC2)s1)c1cc([N+](=O)[O-])ccc1N1CCCCC1,-7.51%
13,Nc1c(/C=C2/C=CC(=O)C(O)=C2)c(=O)nc2sc(CC(=O)N3CCCCC3)nn12,19%
14,O=C(NC(O)C(=O)c1cccs1)c1cccnc1 (stereo not shown),11.3%
15,Cc1ccc([C@@H]2[C@@H]3C(=O)N(C)C(=O)[C@@H]3[C@]3(C)C(=O)N(Cc4ccccc4)CC(=O)N23)o1,13.7%
16,Cc1nn(Cc2cccc(C(N)=O)c2)c(C)c1Br,1.47%
17,Cc1ccccc1-c1nc(CS(=O)(=O)CC(=O)NCCN2CCOCC2)c(C)o1,7.93%
18,O=C(Nc1ccc2ccccc2c1)Nc1ccc2snnc2c1,1.89%
19,CCOC(=O)c1ccc(-n2c(CN3CCOCC3)nc3ccc([N+](=O)[O-])cc3c2=O)cc1,5.65%
20,O=C(O)/C=C\C(=O)Nc1ccc(Oc2ccc(Br)cc2)cc1,12.1%
21,Cc1noc(C(=O)NC2CCCCC2)c1Cl,6.82%
22,CO/N=C(/CS(=O)(=O)Cc1ccccc1Cl)c1ccc(Cl)cc1Cl,2.6%

row,Compound,"hERG current change (%, negative = inhibition) at 1uM"
1,Cc1nn(CC(=O)NCc2ccc(OC(C)C)cc2)c(=O)c2cc3occc3n12,12.9%
2,C=CCn1c(=O)c(C(=O)Nc2cc(C)ccn2)c(O)c2ccccc21,12.1%
3,COc1ccc(OCCC(=O)OCC(=O)NCc2ccco2)cc1,11.2%
4,COc1ccc(CNc2nc3ccccc3n2C(C)C)cc1,1.77%
5,CC(c1n[nH]c(=S)n1-c1ccc(F)cc1)N1CCCCC1 (stereo not shown),11.2%
6,O=C(COC(=O)C1=COCCO1)NC1CCCCC1,15.6%
7,NC(=O)c1ccc(/C=N/O)[n+](Cc2ccccc2)c1.[Br-],12.7%
8,CCn1c(=O)c(C(=O)Nc2ccccc2C)c(O)c2ccccc21,4.51%
9,CC1=C(C)C(OCCBr)N(c2cc(O)c(Cl)cc2F)C1=O (stereo not shown),8.85%
10,CN(C)S(=O)(=O)c1ccc(C(=O)NNC(=O)C2COc3ccccc3O2)cc1 (stereo not shown),1.67%
11,O=C(CCC(=O)NNC(=O)c1ccccc1[N+](=O)[O-])NCc1ccccc1,11.8%
12,O=C(O)c1cc(N/N=C/c2ccc(-c3ccccc3)cc2)ccc1Cl,15.2%
13,Cc1cccc(NC(=O)NNS(=O)(=O)c2ccc(F)cc2)c1,5.88%
14,COCCCNC(=O)Cn1c(=O)n(CCCCCC(=O)Nc2ccccc2)c(=O)c2sccc21,14%
15,N#CCCN(Cc1ccccc1)C(=S)Nc1ccccc1,-2.2%
16,COc1ccc(S(=O)(=O)NCc2ccccn2)cc1OC,13.4%
17,CN(CCNS(=O)(=O)c1ccc2c(c1)oc(=O)n2C)Cc1ccccc1,3.54%
18,CN(NC(=O)c1ccccc1Cl)c1ncc(C(F)(F)F)cc1Cl,4.02%
19,COc1ccc(OCc2cc(C(=O)N(C)C(C)c3ccon3)no2)c(Cl)c1 (stereo not shown),6.48%
20,Cn1c2c(c(=O)n(C)c1=O)CN(Cc1ccco1)CN2,11.1%
21,Cc1ccc(OCC(=O)NC2CCCC2)c(C)c1,7.07%
22,CCOc1ccc(NC(=O)[C@@H]2CCCN2C(=O)c2cccs2)cc1S(=O)(=O)N1CCOCC1,20.5%
